Laboratory results reported in PubChem BioAssay AID588342 (National Center for Advancing Translational Sciences (NCATS), 2011).
About 25,000 (6.9%) of roughly 360,000 compounds were called active. Inconclusive means that the source gave no clear call. Such entries were picked first, then a sample of the others. Calls follow the shape of the dose curve; as a rule, active = well fitted inhibition curve with a large enough effect; inconclusive = small, poorly fitted or top-dose-only effect; inactive = flat fitted curve, though single readings scatter. Where the call is inconclusive, the potency comes from a doubtful curve fit. More than one record can exist for a structure, and the calls need not agree.

molecular target: Luciferin 4-monooxygenase (Photinus pyralis) (UniProt P08659); test: qHTS profiling assay for firefly luciferase inhibitor/activator using purifed enzyme and Km concentrations of substrates (counterscreen for miR-21 project); settings: purified FLuc, luminescence inhibition; activity change, negative = inhibition: at 57.5 µM (top of the series); also: nearly all actives have a fitted effect of over 55% in size;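 as to activity change, negative = inhibition: plate controls were vehicle for no effect and reference inhibitor for full effect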
UniProt P08659, sequence (P08659 whole entry, looked up): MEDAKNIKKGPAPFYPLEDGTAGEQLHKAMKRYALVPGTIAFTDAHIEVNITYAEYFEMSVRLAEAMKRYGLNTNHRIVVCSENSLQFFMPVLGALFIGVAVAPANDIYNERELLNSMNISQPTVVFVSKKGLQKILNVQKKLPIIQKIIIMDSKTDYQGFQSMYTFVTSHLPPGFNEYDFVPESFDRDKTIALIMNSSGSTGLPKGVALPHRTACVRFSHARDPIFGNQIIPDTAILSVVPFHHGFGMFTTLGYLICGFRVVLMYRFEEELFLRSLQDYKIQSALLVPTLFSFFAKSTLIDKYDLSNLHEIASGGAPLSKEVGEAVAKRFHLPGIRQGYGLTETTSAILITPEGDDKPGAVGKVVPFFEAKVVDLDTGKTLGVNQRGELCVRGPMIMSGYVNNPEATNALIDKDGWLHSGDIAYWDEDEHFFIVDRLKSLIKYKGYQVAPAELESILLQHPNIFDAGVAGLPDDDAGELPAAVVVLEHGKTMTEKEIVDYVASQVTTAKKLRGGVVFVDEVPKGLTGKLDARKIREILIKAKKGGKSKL
In short: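 Purified P. pyralis luciferase (10nM final) with 10uM D-luciferin and 10uM ATP (Km levels) in 50mM Tris acetate pH 7.5, 10mM Mg acetate, 0.01% Tween-20, 0.05% BSA; qHTS 6-point titration, ~60 µM downward; luminescence read.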
Potency is read from the fitted curve at half-maximal effect; tags tell the direction and shape of the fitted curve.

SMILES | activity change, negative = inhibition | Potency
Cc1ccc(-c2csc3nc[nH]c(=S)c23)cc1 | inactive: 1.96% | 
Cc1ccc(S(=O)(=O)NC2=C(N3CCN(c4ccccc4F)CC3)C(=O)c3ccccc3C2=O)cc1 |  | inconclusive: 12 µM [inhibitor, partial curve, poor fit]
COc1ccccc1CN=c1c([N+](=O)[O-])nn(-c2ccc3c(c2)OCCO3)n1O |  | inconclusive: 2.13 µM [inhibitor, full curve]
CCCc1[nH]nc2c1C(c1ccsc1)C(C#N)=C(N)O2 (stereo not given) |  | inconclusive: 21.3 µM [inhibitor, partial curve, poor fit]
CCN(CC(=O)Nc1ccc(NC(C)=O)cc1)C(=O)c1cccc(S(=O)(=O)N2CCCC2)c1 |  | inconclusive: 19 µM [inhibitor, partial curve, poor fit]
COC(=O)C1=NN(C(=O)c2ccc(Cl)cc2)C(O)(c2ccccc2)C1 (stereo not given) |  | active: 21.3 µM
COc1ccccc1C(=O)NCC(=O)N1CC=C(c2ccccc2)CC1 |  | inconclusive: 3.01 µM [inhibitor, partial curve, poor fit]
COc1ccccc1NC(=O)COC(=O)/C=C/c1ccc2c(c1)OCO2 |  | active: 10.7 µM
NS(=O)(=O)c1ccc(Nc2ccc([N+](=O)[O-])c3nonc23)cc1 |  | inconclusive: 37.9 µM [inhibitor, partial curve, poor fit]
O=C(c1ccco1)N1CCN(C(=O)C(Cc2ccccc2)NS(=O)(=O)c2cccs2)CC1 (stereo not given) | inactive: -1.5% | 
COC(=O)C(C)Sc1nc2c(cnn2-c2ccc(F)cc2)c(=O)[nH]1 (stereo not given) |  | inconclusive: 37.9 µM [inhibitor, partial curve, poor fit]
CCOC(=O)c1c(/C=N/Nc2ccccc2)c2sc(C)cc2n1C |  | inconclusive: 26.9 µM [inhibitor, single point]
O=C(Nc1ccccc1[N+](=O)[O-])c1cccc(N2C(=O)CCC2=O)c1 |  | inconclusive: 21.3 µM [inhibitor, partial curve, poor fit]
O=C(O)CCC(=O)CCC(=O)c1ccc(Cl)cc1 |  | inconclusive: 37.9 µM [inhibitor, partial curve, poor fit]
CC(=O)N(C(C)=O)c1nc(-c2ccccc2)cn1/N=C/c1ccccc1 |  | inconclusive: 30.1 µM [inhibitor, partial curve, poor fit]
c1ccc2sc(NC3=NCN(CC4CCCO4)CN3)nc2c1 (stereo not given) | inactive: -7.53% | 
CC(C)c1ccc(NC(=S)NNC(=O)c2cccnc2)cc1 |  | active: 10.7 µM
COc1cccc(C(=O)N(Cc2cccnc2)c2nc3c(OC)ccc(C)c3s2)c1OC | inactive: -2.44% | 
COc1ccc(C(=O)N2CCCC(CNC(=O)c3ccccc3Cl)C2)o1 (stereo not given) |  | inconclusive: 23.9 µM [inhibitor, partial curve, poor fit]
Cc1cc2cc(CNC(=O)C3CCCC3)ccc2n1C |  | inconclusive: 21.3 µM [inhibitor, partial curve, poor fit]
COc1ccc(NCc2cc3cc4c(cc3n(CC(=O)Nc3ccc(F)cc3)c2=O)OCCO4)cc1 | inactive: 5.58% | 
COc1ccc(NC(=O)c2ccc(COc3ccccc3Br)o2)cc1OC |  | inconclusive: 26.9 µM [inhibitor, partial curve]
CCn1cnc2cc(NCc3ccc(Cl)cc3)ccc21 |  | active: 10.7 µM
Cc1cc(OCC(=O)NNC(=O)c2ccncc2)ccc1C(C)C |  | active: 8.49 µM

SMILES | activity change, negative = inhibition | Potency
COc1cccc(Cn2c(CNC(=O)CCc3ccccc3)nc3cccnc32)c1 | inactive: 0.937% | 
CC(=O)Nc1cccc(NC(=O)CSc2n[nH]c(-c3ccccc3)n2)c1 |  | inconclusive: 21.3 µM [inhibitor, single point]
Cc1c(Cl)cccc1NC(=O)CCS(=O)(=O)c1ccc2c(c1)oc(=O)n2C | inactive: -5.67% | 
CC(NC(=O)c1cnc2ccccc2n1)c1ccccc1 (stereo not given) |  | inconclusive: 26.9 µM [inhibitor, partial curve, poor fit]
CN(c1ccccc1)S(=O)(=O)c1nnc(NC(=O)C2CCCCC2)s1 |  | active: 0.675 µM
Cc1cc(Cl)ccc1Oc1ccccc1C(=O)CC#N |  | inconclusive: 23.9 µM [inhibitor, partial curve]
C=CCn1c(SCC(=O)NCCC2=CCCCC2)nc2ccc(Cl)cc2c1=O | inactive: 1.22% | 
O=C(O)c1ccc(S(=O)(=O)c2ccc3c(c2)C(=O)N(NC(=O)c2ccccc2)C3=O)cc1 |  | inconclusive: 15.1 µM [inhibitor, partial curve]
N=C1S/C(=C\c2cn[nH]c2-c2ccc(F)cc2)C(=O)N1c1ccccc1F |  | inconclusive: 26.9 µM [inhibitor, single point]
O=C(Nc1ccc2c(c1)OCO2)C1CC(c2c(F)cccc2Cl)=NO1 (stereo not given) |  | inconclusive: 26.9 µM [inhibitor, single point]
CC(=O)Nc1nc(COc2ccc3ccccc3c2)cs1 |  | active: 12 µM
CN(C(=O)c1ccc2c(Cl)c3c(nc2c1)CCC3)c1ccccc1 |  | active: 21.3 µM
CCOc1ccc(NC(=S)NC(=O)c2ccco2)cc1 |  | active: 10.7 µM
COc1ccc(Nc2nnc(SCc3cn4c(C)cccc4n3)s2)cc1 |  | inconclusive: 21.3 µM [inhibitor, partial curve, poor fit]
Cc1ccc(OCC(=O)Nc2cccnc2Cl)cc1C |  | inconclusive: 16.9 µM [inhibitor, partial curve]
O=C(CSc1nnc(C2CC2)n1CC1CCCO1)Nc1ccc(Cl)cc1 (stereo not given) | inactive: -8.61% | 
COCCn1c(C)cc(C(=O)CSc2cc(C)c3ccc(OC)cc3n2)c1C |  | active: 3.01 µM
O=C(Nc1cnc2ccccc2c1)c1cccc(-n2cnnn2)c1 |  | active: 23.9 µM
Cc1occc1-c1nnc(SCc2nnc(-c3ccc(Cl)cc3)o2)n1C |  | inconclusive: 26.9 µM [inhibitor, single point]
COC(=O)CSc1nnc(-c2sc3cc(OC)ccc3c2Cl)n1C |  | inconclusive: 30.1 µM [inhibitor, partial curve, poor fit]
O=Nc1c2nc3ccccc3n(O)c-2c2ccccc12 |  | inconclusive: 23.9 µM [inhibitor, partial curve]
Cn1nccc1C(=O)NC(=S)Nc1cc(Cl)cc(Cl)c1 | inactive: 0.387% | 
O=C(Nc1ccc(CN2CCCCC2)cc1)c1cccc(Br)c1 |  | inconclusive: 33.8 µM [inhibitor, partial curve, poor fit]
Fc1ccccc1CSc1ccc(-c2ccco2)nn1 |  | active: 6.01 µM

SMILES | activity change, negative = inhibition | Potency
COc1ccc(NC(=S)NC(=O)Cc2ccccc2)cc1 |  | inconclusive: 26.9 µM [inhibitor, single point]
CC(C)(CNC(=O)c1ccc(-c2ccccc2Cl)o1)N1CCOCC1 |  | inconclusive: 19 µM [inhibitor, partial curve]
Cc1nn(CCCC(=O)NCCc2ccc(Cl)cc2)c(=O)c2c1sc1ccccc12 |  | inconclusive: 23.9 µM [inhibitor, partial curve]
CCc1ccc(/C=N/Nc2nn[nH]n2)cc1 |  | inconclusive: 16.9 µM [inhibitor, partial curve]
CCOc1ccc(N=C(/C(C(=O)C(=O)N2CCOCC2)=C(\O)c2ccccc2)c2ccccc2)cc1 |  | inconclusive: 15.1 µM [inhibitor, partial curve]
COc1cc2c(cc1OC)CN(C(=O)CN1CCN(S(=O)(=O)c3ccc(C)c(C)c3)CC1)CC2 | inactive: -0.0932% | 
Cc1ccccc1OCC(=O)O/N=C(\N)Cc1cccs1 |  | active: 12 µM
CCCC(=O)Nc1ccc2oc(-c3cccnc3)nc2c1 |  | inconclusive: 23.9 µM [inhibitor, single point]
C=CCN=c1scc(-c2ccc(F)cc2)n1/N=C/c1ccccn1 |  | active: 13.5 µM
CCc1noc(-c2ccc(NCc3ccccc3)c([N+](=O)[O-])c2)n1 |  | inconclusive: 6.75 µM [inhibitor, partial curve, poor fit]
COc1cc(-c2cc(C(=O)Nc3ccc(O)cc3)c3ccccc3n2)cc(OC)c1OC |  | inconclusive: 21.3 µM [inhibitor, single point]
CCCn1cnc2c(cnn2-c2ccc(F)cc2)c1=O |  | inconclusive: 16.9 µM [inhibitor, single point]
CCOc1ccc(Nc2nc3c(S(=O)(=O)c4cccc(Cl)c4)nnn3c3ccsc23)cc1 | inactive: -0.0358% | 
Nc1ncnc(Nc2cccc(Cl)c2Cl)n1 |  | inconclusive: 37.9 µM [inhibitor, partial curve, poor fit]
O=c1cc(-c2ccccc2)[nH]c2ccc(F)cc12 |  | inconclusive: 23.9 µM [inhibitor, single point]
NC(=S)Nc1nc2ccccc2s1 |  | inconclusive: 26.9 µM [inhibitor, partial curve]
O=C(N/N=C/c1ccc([N+](=O)[O-])o1)c1ccccc1NS(=O)(=O)c1cccs1 |  | inconclusive: 30.1 µM [inhibitor, single point]
CC1=C(C(=O)Nc2ccccn2)C(c2ccc(Cl)cc2)NC(=S)N1 (stereo not given) |  | inconclusive: 21.3 µM [inhibitor, single point]
CCc1ccccc1NC(=O)CNC(=O)c1ccccc1OCc1c(C)noc1C | inactive: 1.77% | 
Cc1nnc(NC(=O)CSc2nc(CC(C)C)nc3c2c(=O)n(C)c(=O)n3C)s1 |  | inconclusive: 9.53 µM [inhibitor, partial curve, poor fit]
Cc1ccc(NC(=O)c2sccc2C)cc1[N+](=O)[O-] |  | inconclusive: 5.36 µM [inhibitor, single point]
NC(=O)c1cc(-c2csc(-c3cccnc3)n2)ccc1O |  | inconclusive: 26.9 µM [inhibitor, partial curve]
